Laboratory results from the supplement of paper PMC10126150.
Values marked as one replicate rest on one cluster of the flow cell; about a third of the high ones do not repeat.

Tested on: ATP
Assay: switch fluorescence ratio, 500 uM ATP over buffer (Cy3 cluster intensity, sum of 5 cycles each) (fold (ratio)); higher = stronger signal-on switching upon ATP binding; sequences stand for … in TCGTCGGCAGCGTCAGATGTGTATAAGAGACAGTTTTTTTTTTTTTTTTTTTTTTTTT…TC
Details: aptamer strand: ATP DNA aptamer (quencher-CACCTGGGGGAGTATTGCGGAGGAAGG + anchor), 100 nM annealed; ATP concentration: 500 uM; one replicate
How it was run: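 Clusters with intensities outside 100-1000 RFU were excluded. The remaining Cy3-labelled switching-strand clusters on a modified Illumina MiSeq flow-cell had been annealed to 100 nM quencher-labelled ATP aptamer and imaged in selection buffer, then after 15 min with 500 uM ATP at 22 °C, for five cycles separated by NaOH stripping and re-annealing. The fluorescence ratio, averaged per switch-domain sequence, is each cluster's summed target-cycle Cy3 intensity over its summed buffer-cycle Cy3 intensity.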
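Further: ATP exposure 15 min at 22 °C before imaging.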

**Q.** With ATGGTTTTGA as the sequence, how does the switch fluorescence ratio read?
**A.** 1.04

**Q.** For ATGTAAAGAG, which switch fluorescence ratio is on record?
**A.** 0.948

**Q.** With ATGTAATACC as the sequence, how does the switch fluorescence ratio read?
**A.** 1.12

**Q.** For ATGTACAAGT, which switch fluorescence ratio is on record?
**A.** 1.05

**Q.** For ATGTATCCG, which switch fluorescence ratio is on record?
**A.** 0.919

**Q.** With ATGTCGAGGG as the sequence, how does the switch fluorescence ratio read?
**A.** 1

**Q.** Which switch fluorescence ratio does the source give for ATGTCGGCGA here?
**A.** 1.03

**Q.** How did the switch fluorescence ratio turn out when ATGTCGGGAG was run?
**A.** 1.02

**Q.** For ATGTCTGTTA, which switch fluorescence ratio is on record?
**A.** 1.02

**Q.** ATGTCTTGGT was tested. Which switch fluorescence ratio did it give?
**A.** 1

**Q.** How did the switch fluorescence ratio turn out when ATGTGAACC was run?
**A.** 1.02

**Q.** Which switch fluorescence ratio does the source give for ATGTGAACGG here?
**A.** 1

**Q.** ATGTGAATT was tested. Which switch fluorescence ratio did it give?
**A.** 0.978

**Q.** With ATGTGACTGT as the sequence, how does the switch fluorescence ratio read?
**A.** 1

**Q.** ATGTGAGTCC was tested. Which switch fluorescence ratio did it give?
**A.** 1.03

**Q.** For ATGTGAGTTG, which switch fluorescence ratio is on record?
**A.** 1.01

**Q.** Which switch fluorescence ratio does the source give for ATGTGGATGT here?
**A.** 0.991

**Q.** With ATGTGGCGAT as the sequence, how does the switch fluorescence ratio read?
**A.** 0.997

**Q.** Which switch fluorescence ratio does the source give for ATGTGGGAAG here?
**A.** 0.961

**Q.** How did the switch fluorescence ratio turn out when ATGTGGTCGG was run?
**A.** 1.02

**Q.** ATGTGGTGAG was tested. Which switch fluorescence ratio did it give?
**A.** 1.02

**Q.** Which switch fluorescence ratio does the source give for ATGTTACAGC here?
**A.** 1.02

**Q.** How did the switch fluorescence ratio turn out when ATGTTACATA was run?
**A.** 0.996

**Q.** Which switch fluorescence ratio does the source give for ATGTTACTTA here?
**A.** 1.08

**Q.** How did the switch fluorescence ratio turn out when ATGTTGCAGT was run?
**A.** 1.03

**Q.** Which switch fluorescence ratio does the source give for ATGTTGCGCT here?
**A.** 1

**Q.** Which switch fluorescence ratio does the source give for ATGTTGGCAG here?
**A.** 1.03

**Q.** ATGTTGTGTG was tested. Which switch fluorescence ratio did it give?
**A.** 0.994

**Q.** ATGTTTACGT was tested. Which switch fluorescence ratio did it give?
**A.** 0.999

**Q.** With ATGTTTCTAG as the sequence, how does the switch fluorescence ratio read?
**A.** 0.954

**Q.** How did the switch fluorescence ratio turn out when ATGTTTGC was run?
**A.** 1.01

**Q.** For ATTAAAAAG, which switch fluorescence ratio is on record?
**A.** 1.05

**Q.** Which switch fluorescence ratio does the source give for ATTAAAATCC here?
**A.** 1.04

**Q.** With ATTAAAGAGT as the sequence, how does the switch fluorescence ratio read?
**A.** 1.02

**Q.** Which switch fluorescence ratio does the source give for ATTAACACAG here?
**A.** 1.05

**Q.** For ATTAAGCCTC, which switch fluorescence ratio is on record?
**A.** 0.997

**Q.** ATTAATAAT was tested. Which switch fluorescence ratio did it give?
**A.** 0.975

**Q.** How did the switch fluorescence ratio turn out when ATTAATATCC was run?
**A.** 0.998

**Q.** How did the switch fluorescence ratio turn out when ATTAATTCAC was run?
**A.** 1.03

**Q.** With ATTACAGGAA as the sequence, how does the switch fluorescence ratio read?
**A.** 1.01

**Q.** How did the switch fluorescence ratio turn out when ATTACAGGTT was run?
**A.** 1.01

**Q.** Which switch fluorescence ratio does the source give for ATTACCGGGC here?
**A.** 0.899

**Q.** How did the switch fluorescence ratio turn out when ATTACCTCGT was run?
**A.** 0.962

**Q.** ATTACGCTT was tested. Which switch fluorescence ratio did it give?
**A.** 1.08

**Q.** With ATTACTTTCC as the sequence, how does the switch fluorescence ratio read?
**A.** 1.75

**Q.** For ATTAGACGGG, which switch fluorescence ratio is on record?
**A.** 0.943

**Q.** ATTAGATACC was tested. Which switch fluorescence ratio did it give?
**A.** 1.07

**Q.** For ATTAGATGGG, which switch fluorescence ratio is on record?
**A.** 0.981

**Q.** Which switch fluorescence ratio does the source give for ATTAGCAGGA here?
**A.** 0.978

**Q.** How did the switch fluorescence ratio turn out when ATTAGCGCTC was run?
**A.** 1.02

**Q.** How did the switch fluorescence ratio turn out when ATTAGCGGAT was run?
**A.** 0.993

**Q.** For ATTAGGAAAC, which switch fluorescence ratio is on record?
**A.** 1.02

**Q.** ATTAGGTGGC was tested. Which switch fluorescence ratio did it give?
**A.** 0.997

**Q.** With ATTAGGTTGC as the sequence, how does the switch fluorescence ratio read?
**A.** 0.988

**Q.** ATTAGTTGAG was tested. Which switch fluorescence ratio did it give?
**A.** 1.01

**Q.** How did the switch fluorescence ratio turn out when ATTATAAAGG was run?
**A.** 1

**Q.** For ATTATAACGG, which switch fluorescence ratio is on record?
**A.** 0.997

**Q.** With ATTATAATAG as the sequence, how does the switch fluorescence ratio read?
**A.** 1.01

**Q.** For ATTATAATGA, which switch fluorescence ratio is on record?
**A.** 0.987

**Q.** ATTATACATT was tested. Which switch fluorescence ratio did it give?
**A.** 0.962

**Q.** With ATTATAGAAA as the sequence, how does the switch fluorescence ratio read?
**A.** 0.955

**Q.** Which switch fluorescence ratio does the source give for ATTATCTCTT here?
**A.** 0.99

**Q.** ATTATCTGAA was tested. Which switch fluorescence ratio did it give?
**A.** 1.02

**Q.** ATTATGCGAT was tested. Which switch fluorescence ratio did it give?
**A.** 0.954

**Q.** For ATTATTACTA, which switch fluorescence ratio is on record?
**A.** 1.03

**Q.** For ATTCAACGG, which switch fluorescence ratio is on record?
**A.** 1.05

**Q.** With ATTCACAACT as the sequence, how does the switch fluorescence ratio read?
**A.** 1.03

**Q.** For ATTCACAGTG, which switch fluorescence ratio is on record?
**A.** 1.03

**Q.** Which switch fluorescence ratio does the source give for ATTCACTTTA here?
**A.** 1.04

**Q.** Which switch fluorescence ratio does the source give for ATTCAGGGCC here?
**A.** 0.987

**Q.** ATTCATAAAA was tested. Which switch fluorescence ratio did it give?
**A.** 1.04

**Q.** With ATTCATCTAC as the sequence, how does the switch fluorescence ratio read?
**A.** 0.977

**Q.** How did the switch fluorescence ratio turn out when ATTCATTATA was run?
**A.** 1

**Q.** How did the switch fluorescence ratio turn out when ATTCCAAAGC was run?
**A.** 1.64

**Q.** For ATTCCACGCT, which switch fluorescence ratio is on record?
**A.** 1.31

**Q.** For ATTCCATCGT, which switch fluorescence ratio is on record?
**A.** 0.986

**Q.** How did the switch fluorescence ratio turn out when ATTCCCAGAC was run?
**A.** 1.34

**Q.** For ATTCCCAGCT, which switch fluorescence ratio is on record?
**A.** 1.04

**Q.** How did the switch fluorescence ratio turn out when ATTCCCGTC was run?
**A.** 1.06

**Q.** ATTCCCTCCC was tested. Which switch fluorescence ratio did it give?
**A.** 0.996

**Q.** Which switch fluorescence ratio does the source give for ATTCCGATAT here?
**A.** 1.08

**Q.** For ATTCCGTTT, which switch fluorescence ratio is on record?
**A.** 1.04

**Q.** ATTCCTGTCT was tested. Which switch fluorescence ratio did it give?
**A.** 0.966

**Q.** For ATTCCTGTTG, which switch fluorescence ratio is on record?
**A.** 1.04

**Q.** For ATTCCTTTTC, which switch fluorescence ratio is on record?
**A.** 0.923

**Q.** With ATTCGAGGTG as the sequence, how does the switch fluorescence ratio read?
**A.** 0.967

**Q.** How did the switch fluorescence ratio turn out when ATTCGCGAGC was run?
**A.** 1.13

**Q.** Which switch fluorescence ratio does the source give for ATTCGCTTTC here?
**A.** 1.32

**Q.** ATTCGGACAC was tested. Which switch fluorescence ratio did it give?
**A.** 1.07

**Q.** For ATTCGGCCGG, which switch fluorescence ratio is on record?
**A.** 1

**Q.** ATTCGGCCTG was tested. Which switch fluorescence ratio did it give?
**A.** 1.01

**Q.** Which switch fluorescence ratio does the source give for ATTCGTGATA here?
**A.** 1.09

**Q.** Which switch fluorescence ratio does the source give for ATTCGTGTCG here?
**A.** 0.886

**Q.** How did the switch fluorescence ratio turn out when ATTCTAACTA was run?
**A.** 0.944

**Q.** ATTCTAAGAT was tested. Which switch fluorescence ratio did it give?
**A.** 1.1

**Q.** ATTCTCATGC was tested. Which switch fluorescence ratio did it give?
**A.** 0.992

**Q.** With ATTCTCGAAT as the sequence, how does the switch fluorescence ratio read?
**A.** 0.947

**Q.** For ATTCTCGC, which switch fluorescence ratio is on record?
**A.** 1.02

**Q.** With ATTCTGACCA as the sequence, how does the switch fluorescence ratio read?
**A.** 1.05

**Q.** For ATTCTGGAGC, which switch fluorescence ratio is on record?
**A.** 1.44

**Q.** How did the switch fluorescence ratio turn out when ATTCTGTCAC was run?
**A.** 0.986
